Results: paper PMC4336329 (PLoS ONE, 2015)
Hit rate of the full screen: of about 310,000 compounds, about 2,200 (0.71%) showed an effect of 50% or more. The effect is printed as a negative number. Some of the results follow.

Biological target: human ether-à-go-go-related gene (hERG) potassium channel (human, UniProt Q12809)
Assay: primary screen, population patch clamp on CHO cells stably expressing hERG

Chain of human ether-à-go-go-related gene (hERG) potassium channel (Q12809 whole entry, looked up): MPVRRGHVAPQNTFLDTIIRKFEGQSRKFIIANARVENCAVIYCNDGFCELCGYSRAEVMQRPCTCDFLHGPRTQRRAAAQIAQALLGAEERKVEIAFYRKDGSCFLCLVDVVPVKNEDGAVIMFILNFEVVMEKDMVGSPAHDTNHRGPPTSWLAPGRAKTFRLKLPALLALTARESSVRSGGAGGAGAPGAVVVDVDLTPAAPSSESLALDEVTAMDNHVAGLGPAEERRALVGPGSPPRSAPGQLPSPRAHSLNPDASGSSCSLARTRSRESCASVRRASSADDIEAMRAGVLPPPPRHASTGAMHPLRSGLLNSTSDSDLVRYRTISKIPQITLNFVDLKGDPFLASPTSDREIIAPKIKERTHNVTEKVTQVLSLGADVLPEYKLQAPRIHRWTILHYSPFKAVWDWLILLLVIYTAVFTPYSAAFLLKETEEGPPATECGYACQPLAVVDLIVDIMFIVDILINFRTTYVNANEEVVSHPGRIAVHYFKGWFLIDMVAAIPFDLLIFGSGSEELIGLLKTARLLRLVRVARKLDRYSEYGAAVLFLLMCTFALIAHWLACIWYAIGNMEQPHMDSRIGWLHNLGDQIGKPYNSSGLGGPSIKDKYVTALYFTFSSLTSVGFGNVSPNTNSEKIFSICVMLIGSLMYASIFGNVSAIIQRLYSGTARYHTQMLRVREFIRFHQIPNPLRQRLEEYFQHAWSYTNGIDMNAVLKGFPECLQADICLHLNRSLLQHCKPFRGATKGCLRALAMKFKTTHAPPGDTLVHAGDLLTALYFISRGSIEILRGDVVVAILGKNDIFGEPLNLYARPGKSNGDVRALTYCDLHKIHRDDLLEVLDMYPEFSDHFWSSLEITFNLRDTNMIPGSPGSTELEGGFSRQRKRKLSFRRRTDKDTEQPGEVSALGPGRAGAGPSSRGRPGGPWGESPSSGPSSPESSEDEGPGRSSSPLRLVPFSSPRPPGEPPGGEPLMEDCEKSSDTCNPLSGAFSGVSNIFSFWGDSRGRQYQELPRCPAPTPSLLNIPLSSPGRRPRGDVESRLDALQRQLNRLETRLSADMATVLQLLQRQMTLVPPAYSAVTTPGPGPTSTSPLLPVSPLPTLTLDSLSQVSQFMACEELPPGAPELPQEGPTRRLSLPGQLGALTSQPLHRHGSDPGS

Row | Compound | hERG current change (%, negative = inhibition) at 1uM
1 | CCOC(=O)Nc1ccccc1C(=O)N1CCOCC1 | 15.1%
2 | CCCOc1c(Br)cc(C(=O)OCC(=O)NC2CC2)cc1OC | 8.83%
3 | Cc1cc(C)cc(N2CC(C(=O)OCC(=O)Nc3cc(C)on3)CC2=O)c1 (stereo not drawn) | 20.3%
4 | CC(C)(C)SCCNC(=O)CN1C(=O)c2ccccc2S1(=O)=O | 3.97%
5 | COc1ccc(C(CNC(=O)c2ccc(S(=O)(=O)N(C)C)cc2)N2CCCCC2)cc1 (stereo not drawn) | 0.868%
6 | Cc1ccc(Oc2nc3ccccn3c(=O)c2/C=C(\C#N)C(=O)NC2CCS(=O)(=O)C2)c(C)c1 (stereo not drawn) | 18%
7 | COc1cccc(COC(=O)C2CC(=O)N(Cc3ccco3)C2)c1OC (stereo not drawn) | 10.6%
8 | CC(NC(=O)C(=O)N1CCOCC1)C(c1cccs1)N1CCN(c2ccccc2F)CC1 (stereo not drawn) | 3.31%
9 | CC(C)c1onc(C(=O)N2C(C)CCCC2C)c1[N+](=O)[O-] (stereo not drawn) | 21.3%
10 | CN(C)C(=O)c1nnc(Cc2ccc(Cl)cc2)o1 | 12%
11 | O=C(Nc1c2c(nn1-c1ccccc1)CS(=O)(=O)C2)c1ccc2c(c1)OCO2 | 11.2%
12 | Nn1c(SCC(=O)NC(=O)NC2CCCC2)nnc1-c1ccccc1F | 6.95%
13 | N#Cc1c(C(F)(F)F)cc(-c2ccccc2)n(N)c1=O | 17.1%
14 | Cc1cccc(N2CCN(C(=O)c3ccccn3)CC2C)c1 (stereo not drawn) | 12.4%
15 | O=C1C2CCCN2C(c2cccnc2)N1c1nccs1 (stereo not drawn) | 9.96%
16 | COc1ccc(CC(=O)NCCC2=CCCCC2)cc1 | 17.4%
17 | C=CCSc1ncccc1C(=O)NCc1ccc(C)cc1 | -9.03%
18 | Cc1ccc(C(NC(N)=O)c2ccccc2C)cc1 (stereo not drawn) | 8.15%
19 | COc1ccc(NC(=O)N2CCOCC2)cc1OC | 15.8%
20 | COc1ccccc1-n1nnnc1SCC(=O)NC1CCCC1 | 10.6%
21 | CSc1nnc(-c2ccc(S(=O)(=O)N3CCCC3)cc2)n1C | -2.03%
22 | COc1ccc(NC(=O)C2CCCN(S(=O)(=O)c3c(C)n[nH]c3C)C2)cc1 (stereo not drawn) | 4.3%
23 | COc1cc2nc(-c3cccs3)oc(=O)c2cc1OC | 11.8%

Row | Compound | hERG current change (%, negative = inhibition) at 1uM
24 | Cc1cccc(-n2nnc(C(=O)NCc3ccc4c(c3)OCO4)c2N)c1 | 17.2%
25 | Cc1ccc(C(=O)COC(=O)CCN2C(=O)C3C4CCC(C4)C3C2=O)cc1[N+](=O)[O-] (stereo not drawn) | 3.52%
26 | O=C1/C(=N\S(=O)(=O)c2cccs2)C([n+]2ccccc2)=C([O-])c2ccccc21 | 31.7%
27 | O=C(COc1ccc(Br)cc1)N1CCN(c2ccc([N+](=O)[O-])c(N3CCCCC3)c2)CC1 | 3.94%
28 | Sc1oc(-c2ccccc2)cc1C=Nc1ccccc1 | -6.53%
29 | CCOc1ccccc1OCCCCN1CCCC1 | -14.2%
30 | CCOc1ccc(NCc2ccccc2OCc2cccc(F)c2)cc1.Cl | 3.42%
31 | CCOCC(=O)Nc1nnc(C2CCCCC2)s1 | 12.6%
32 | O=S(=O)(c1ccc(NCCc2c[nH]c3ccccc23)nc1)N1CCOCC1 | 11.4%
33 | CC(=O)c1cc(CN2CCC(C(=O)Nc3cccc(-c4cscn4)c3)CC2)cs1 | 1.73%
34 | NC(=O)CC12CC3CC(C1)CC(CC(N)=O)(C3)C2 | 18.4%
35 | COc1ccc(-c2cc(C(=O)N3CCOCC3)c3ccccc3n2)cc1OC | 0.37%
36 | CC(=O)Nc1cccc(S(N)(=O)=O)c1C | 6.26%
37 | COc1ccc2cc(C(=O)NCCCN3CCCC3=O)[nH]c2c1 | 13.9%
38 | CC(C)Oc1ccc(CSC(=N)N)cc1.Cl | 2.31%
39 | CCOC(=O)[C@H]1[C@H]2COc3ccc(Br)cc3[C@@H]2N2C(=O)c3ccc(F)cc3NC(=O)[C@@]12C | 4.07%
40 | Cc1cc(C)n2nc(SCC(=O)N/N=C/c3ccc(F)cc3)nc2n1 | 5.53%
41 | COc1ccccc1CSc1ncc(-c2ccc([N+](=O)[O-])cc2)[nH]1 | 1.99%
42 | COc1ccc(C(=O)CC(=O)C(=O)Nc2ccc(C)cc2Cl)cc1 | 5.39%
43 | COc1cc(CNC(C)C23CC4CC(CC(C4)C2)C3)cc(OC)c1OC.Cl (stereo not drawn) | 11.5%
44 | Cc1ccc(C)c2c1c1ccccc1n2C | 7.34%
45 | CN(C)CCNc1nc2sc3c(c2c(=O)n1-c1ccc(F)cc1)CCCCC3 | 6.73%
